Data published in the BET-seq Pho4 binding data (Le et al. 2018).
The other results are listed elsewhere or left out. The energies were worked out here from pooled read counts, against the library average; single values are noisy.

Target: T1, Pho4 (S. cerevisiae) (UniProt P07270)
T1 sequence: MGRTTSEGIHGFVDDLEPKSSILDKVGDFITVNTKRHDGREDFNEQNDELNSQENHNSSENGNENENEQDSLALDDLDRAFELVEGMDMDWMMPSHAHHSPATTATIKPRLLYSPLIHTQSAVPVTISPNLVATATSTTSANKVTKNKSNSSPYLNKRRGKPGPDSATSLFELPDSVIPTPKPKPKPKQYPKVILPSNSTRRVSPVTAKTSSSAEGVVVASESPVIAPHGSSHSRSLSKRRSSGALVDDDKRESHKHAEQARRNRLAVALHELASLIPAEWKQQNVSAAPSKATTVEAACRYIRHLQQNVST
Test: relative binding free energy (BET-seq); higher = weaker binding
Details: reference: library average

Relative binding free energy, 0.28 kcal/mol:
ATCGTCACGTGAGATT

Relative binding free energy, 0.14 kcal/mol:
ATACTCACGTGTTTGT
ATACTCACGTGTTAGT
TATAACACGTGGAATA
TGTACCACGTGGAAGG

Relative binding free energy, -0.1 kcal/mol:
GTGATCACGTGGCATG
TCGCGCACGTGCGGGG
GTGACCACGTGGTTTG
AGGACCACGTGCGGGT
ATTGTCACGTGGGCTG
TGATACACGTGGGTCG

Relative binding free energy, 0.12 kcal/mol:
AGGGTCACGTGGTTGT
TCTGCCACGTGTTTTT
TATCTCACGTGGGTGA
GAGAGCACGTGTAAGG
TATCTCACGTGTTTTA
GGATTCACGTGTGTCG
TGGTCCACGTGTTTCG

Relative binding free energy, -0.16 kcal/mol:
CGAGGCACGTGGGAGA
GGAGGCACGTGCAGTG
TCTGGCACGTGGTCTG
TATTGCACGTGCGGTA
AGGGGCACGTGGACTT

Relative binding free energy, 0.39 kcal/mol:
TGCTTCACGTGATTTG

Relative binding free energy, 0.24 kcal/mol:
TAGTTCACGTGGGGAT
CTTGTCACGTGTAGAT
TTTTACACGTGAGTGC
GGTGTCACGTGACGCG

Relative binding free energy, 0.2 kcal/mol:
TGCTTCACGTGTTTGT
TTGATCACGTGTGAGA
TGGATCACGTGCATTG
CATTGCACGTGTGGTG
TGGTCCACGTGATATT
TCATTCACGTGTTGTG

Relative binding free energy, -0.12 kcal/mol:
GTAAACACGTGGGGCT
AGGTGCACGTGCGTAA
CGCTACACGTGGGTGG

Relative binding free energy, 0.17 kcal/mol:
CGGGACACGTGTTGGA

Relative binding free energy, 0.15 kcal/mol:
AAATACACGTGTGGAG
GTTTACACGTGTAGGA
GGGCACACGTGTTAGG
GTTACCACGTGTGAGT
GGCGACACGTGTGTAT
AGAGTCACGTGTTAGG
GAGGACACGTGGAAGG

Relative binding free energy, 0.45 kcal/mol:
GAATTCACGTGTTAAG

Relative binding free energy, 0.04 kcal/mol:
ATCGTCACGTGGTGGG
TGTGTCACGTGAAGAG
ACGGGCACGTGACGTG
GTATACACGTGTATTA
GCATGCACGTGAGGGT
TATTACACGTGTTCTG

Relative binding free energy, -0.11 kcal/mol:
GTCTGCACGTGGGGCG
ACTGTCACGTGGGGGA

Relative binding free energy, -0.13 kcal/mol:
GGAAGCACGTGTTTGA
TTTGGCACGTGTCAGG
AATGGCACGTGGTGTT
TGTGGCACGTGCCTAG

Relative binding free energy, 0.16 kcal/mol:
GGGTACACGTGCTATT
TTGAACACGTGAGATT
TTTTGCACGTGACTGT
TAGGACACGTGATCTT
TTTGCCACGTGTAGGC
TCGTTCACGTGTTTTA

Relative binding free energy, 0.37 kcal/mol:
AAATTCACGTGTGGTG
ATTTTCACGTGGGATT
AGTTTCACGTGAGATT
AATTTCACGTGGAGCT
GTGTACACGTGAAGTA
ATGTTCACGTGTAGAT

Relative binding free energy, -0.15 kcal/mol:
GAGGGCACGTGGTTCG
CTTGGCACGTGGGACT
CAGTGCACGTGGGAGA

Relative binding free energy, -0.04 kcal/mol:
TTAGGCACGTGTTGTG

Relative binding free energy, 0.21 kcal/mol:
AATATCACGTGTGCGT
ATTGCCACGTGATTGA
GTCATCACGTGTATTG
GTCCTCACGTGGTAGG
GTTCACACGTGTGGGT
TGGGACACGTGAGTGG
GATATCACGTGCTGTT

Relative binding free energy, 0.1 kcal/mol:
TGTATCACGTGGCGGA
GGATACACGTGGTTTG
ATCGACACGTGTAGTT
TTTGACACGTGACATG

Relative binding free energy, 0.08 kcal/mol:
TATTGCACGTGTAGGG
TATTCCACGTGTCGGT
ATGCTCACGTGGGATT
GGCGTCACGTGGTGGC
TAAAGCACGTGTAGTT
GGTGTCACGTGGCGAG
TGGTACACGTGCGGTT
ATAGACACGTGTATGA
AGGAACACGTGCTTTT
AGGGTCACGTGGGGAG
TGTGTCACGTGCATAG
GGTACCACGTGGATGG
GTATGCACGTGTATGA

Relative binding free energy, 0.46 kcal/mol:
TAGTTCACGTGAGAAT

Relative binding free energy, 0 kcal/mol:
ACGTACACGTGGAGTG
TATATCACGTGTGCTG
GGCACCACGTGTGGGT
ATGTGCACGTGTGGTT

Relative binding free energy, 0.03 kcal/mol:
AGGTCCACGTGTTGTT
TAGGACACGTGTAGTG
TCGTACACGTGGAGGT
TTAGTCACGTGTTGAT
TCGGGCACGTGTTGGG
TTTGACACGTGTGGAT
TGAGTCACGTGGATGG
ATATTCACGTGTTATT
AGAGTCACGTGGTGGT

Relative binding free energy, 0.42 kcal/mol:
TGTTTCACGTGAATAA

Relative binding free energy, 0.18 kcal/mol:
AAAGGCACGTGAGGAT

Relative binding free energy, 0.02 kcal/mol:
CATTACACGTGTTGTG
ATGCTCACGTGCGGGT
GGGCACACGTGGAGGG

Relative binding free energy, 0.29 kcal/mol:
GTAGTCACGTGATTGC
TTTTCCACGTGGTGAC
ATGGTCACGTGTCGGT
GAGCACACGTGATGGG
GACTTCACGTGTGGTT

Relative binding free energy, 0.06 kcal/mol:
AGGTACACGTGCTTGT
GTGTACACGTGTGCCG
ACTTACACGTGGAGGG
TGGGTCACGTGGAGCG
GTCGTCACGTGGGACT
GATTGCACGTGTTTAT

Relative binding free energy, -0.02 kcal/mol:
TATAGCACGTGTCGAG
GGGAACACGTGGTGTT
GAGTCCACGTGGGAGT
TGAGGCACGTGACGTG
TCGGCCACGTGGGAGT
TTCGCCACGTGGTGGG

Relative binding free energy, -0.06 kcal/mol:
TAGTGCACGTGCGTGA
TCGTGCACGTGGGAAT
TTCAGCACGTGGAGTA

Relative binding free energy, -0.01 kcal/mol:
AGGGACACGTGGTTGG
GTGGGCACGTGAGCCG
TTTTGCACGTGCTTTC
TGTAGCACGTGTAGCG
GAGGGCACGTGGTGGG
ACTTGCACGTGTTTAT

Relative binding free energy, 0.31 kcal/mol:
GGTTTCACGTGTCTTG
TCGTTCACGTGACGTT
CAAATCACGTGTGTGG

Relative binding free energy, -0.14 kcal/mol:
CCGGGCACGTGGCGTA
GTAGGCACGTGGTACA
AGTAGCACGTGGGAGC

Relative binding free energy, -0.18 kcal/mol:
TTTGACACGTGGCATA
CAATGCACGTGGGGTA
TTGAACACGTGGGTTC

Relative binding free energy, 0.19 kcal/mol:
GGTTTCACGTGCGGTG
ACGTTCACGTGTGGTG
TAGATCACGTGTAAGT

Relative binding free energy, 0.27 kcal/mol:
AGGTTCACGTGTTATC
GGTGCCACGTGAAAGT

Relative binding free energy, 0.23 kcal/mol:
ATAGTCACGTGACTGG
AAGTTCACGTGGTTAG
TGTGTCACGTGTAATC
GGTTTCACGTGGGGCG
GTCTTCACGTGTCTTG

Relative binding free energy, 0.05 kcal/mol:
TGTATCACGTGGGAGG
TGTTGCACGTGCAAGT
GTTGTCACGTGTGGCC
GTTTGCACGTGGTAAG
TTGGCCACGTGAGGGA

Relative binding free energy, 0.07 kcal/mol:
TATTACACGTGGCTGG
TATGTCACGTGTGGAC
GTCTGCACGTGGGAGC
AATAGCACGTGAAGTG

Relative binding free energy, 0.09 kcal/mol:
TCAGTCACGTGCGGTG
TTCATCACGTGTAGTG
AGCGACACGTGTGGTT
GGCTGCACGTGTGCGA
GGTGGCACGTGTACGG
AGGTGCACGTGTTATG

Relative binding free energy, -0.19 kcal/mol:
GGGCGCACGTGCGTTG

Relative binding free energy, 0.11 kcal/mol:
GGTCCCACGTGAGTGG
CGTGTCACGTGGGACA
GCTGTCACGTGTTTTG
TGGCACACGTGGATTG

Relative binding free energy, -0.22 kcal/mol:
GGAGGCACGTGCATGT

Relative binding free energy, -0.08 kcal/mol:
AATTGCACGTGCTGGG
ATTGGCACGTGATGGT

Relative binding free energy, -0.05 kcal/mol:
GTTAGCACGTGGCGGT
AGTGACACGTGGCAGT
CTGCGCACGTGTTGAT

Relative binding free energy, 0.3 kcal/mol:
GTGTGCACGTGAGAAT
TCTTTCACGTGAGGCT
GTTTTCACGTGTTTAG
GGTTTCACGTGGGACA
CGGGTCACGTGATGTA

Relative binding free energy, 0.35 kcal/mol:
GGGGTCACGTGAAGAA
TGGGACACGTGACTTG

Relative binding free energy, -0.27 kcal/mol:
CGGGGCACGTGTGTGC

Relative binding free energy, 0.43 kcal/mol:
ATGTTCACGTGAGTCT
AAGTTCACGTGTGGTC

Relative binding free energy, 0.01 kcal/mol:
GGGGCCACGTGTGCTG
GTAGGCACGTGTTCTG
AGTGTCACGTGGATCA
GCGGGCACGTGACGTG
GGATGCACGTGCAAGG
TTAGTCACGTGGGCTT

Relative binding free energy, 0.26 kcal/mol:
AATGTCACGTGAAGGT
TATTACACGTGAAGAT
TATTTCACGTGGATCT

Relative binding free energy, -0.24 kcal/mol:
TGGCGCACGTGGTGTA
AGGGGCACGTGGCTCG

Relative binding free energy, 0.33 kcal/mol:
TATTTCACGTGACGTA
GTTTTCACGTGTGCCA
CATAACACGTGATGGT
GGTTTCACGTGGTAAT
GTTTTCACGTGTGCTA

Relative binding free energy, -0.23 kcal/mol:
GTTGGCACGTGGTCCG

Relative binding free energy, -0.07 kcal/mol:
AAGTGCACGTGGATGA
TGTGGCACGTGGTTAG
TGCTGCACGTGGCGTT
CATTGCACGTGGTGGC
ATTAGCACGTGTTGAG

Relative binding free energy, -0.17 kcal/mol:
GTAGGCACGTGGATAG

Relative binding free energy, -0.03 kcal/mol:
TAGGACACGTGGTAAG
TTCTCCACGTGTGGTG
TATCACACGTGGGCGG
TGTCACACGTGTGGAT

Relative binding free energy, 0.13 kcal/mol:
TGGATCACGTGGTGGT
CTATTCACGTGTTTGT
GTCTACACGTGGAGTT

Relative binding free energy, -0.09 kcal/mol:
AGTGTCACGTGGCTGC
TGCTGCACGTGGGTTT
